Data from paper doi:10.1101/2024.08.07.607021.
Residue numbers refer to the chain shown, from its start. Names and notes keep the numbering of the source. These are yes or no findings as the source states them, for the method shown. In cells and extracts the contact can be indirect. Some binding calls cover weakened binding; strength is not graded here. For part of these data: Tags and fused reporters may be left off the sequences shown. One block for each molecule: values may come before it.

Sequences of proteins named here, by UniProt entry; tags and fusion partners are left off. A change or cut given only in a name is not applied to a line headed by its entry.
UniProt P51809: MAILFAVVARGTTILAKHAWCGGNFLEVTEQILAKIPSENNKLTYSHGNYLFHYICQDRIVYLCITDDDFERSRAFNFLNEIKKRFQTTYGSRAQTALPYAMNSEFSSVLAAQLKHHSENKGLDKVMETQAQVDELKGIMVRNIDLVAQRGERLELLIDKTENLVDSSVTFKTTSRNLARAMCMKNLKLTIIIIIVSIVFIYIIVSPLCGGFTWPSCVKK
UniProt Q12846: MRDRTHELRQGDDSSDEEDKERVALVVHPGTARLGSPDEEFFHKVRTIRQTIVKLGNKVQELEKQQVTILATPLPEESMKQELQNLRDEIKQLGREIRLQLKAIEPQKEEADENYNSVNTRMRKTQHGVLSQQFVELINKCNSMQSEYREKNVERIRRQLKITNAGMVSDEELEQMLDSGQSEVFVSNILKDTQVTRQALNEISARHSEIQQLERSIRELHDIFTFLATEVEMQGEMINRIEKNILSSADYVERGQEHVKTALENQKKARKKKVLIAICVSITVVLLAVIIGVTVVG
UniProt Q01628: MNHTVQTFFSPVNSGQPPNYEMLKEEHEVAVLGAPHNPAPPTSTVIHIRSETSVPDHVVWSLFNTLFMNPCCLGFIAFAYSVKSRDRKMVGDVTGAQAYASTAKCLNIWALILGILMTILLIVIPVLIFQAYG

Tests used:
VAMP7-myc (human) = VAMP7-myc (human) (UniProt P51809); assay: co-IP; HEK293T co-transfected with one FLAG-tagged CD225 protein and one HA- or Myc-tagged SNARE; lysis in 50 mM Tris-HCl pH 7.4, 1.0% TritonX-100, 150 mM NaCl, 1 mM EDTA; IP with anti-HA, anti-FLAG or anti-myc on Dynabeads, 3 hr at 4°C; immunoblot
VAMP8-HA (human) = target: T1, VAMP8-HA (human) (UniProt Q9BV40); assay: as above
T1 sequence: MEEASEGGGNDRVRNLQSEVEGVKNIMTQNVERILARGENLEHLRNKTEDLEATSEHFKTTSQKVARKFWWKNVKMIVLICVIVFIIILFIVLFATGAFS

[1] = target: T2, endogenous STX8 (HeLa) (human (endogenous in HeLa)) (UniProt Q9UNK0); assay: co-IP; HeLa (WT or IFITM3 KO); endogenous STX8, Vti1b, VAMP8 or VAMP7 immunoprecipitated with its antibody; immunoblot for endogenous IFITM3 or VAMP8
T2 sequence: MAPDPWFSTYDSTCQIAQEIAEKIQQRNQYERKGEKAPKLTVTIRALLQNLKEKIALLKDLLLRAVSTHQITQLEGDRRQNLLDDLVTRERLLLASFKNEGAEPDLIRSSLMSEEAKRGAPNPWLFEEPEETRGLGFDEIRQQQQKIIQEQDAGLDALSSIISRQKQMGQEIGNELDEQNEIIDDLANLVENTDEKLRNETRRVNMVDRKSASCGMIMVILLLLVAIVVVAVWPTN

[2] = target: endogenous VAMP7 (HeLa) (human (endogenous in HeLa)) (UniProt P51809); assay: as above
[3] = target: T3, endogenous VAMP8 (HeLa) (human (endogenous in HeLa)) (UniProt Q9BV40); assay: as above
T3 sequence: T1 sequence

[4] = target: T4, endogenous Vti1b (HeLa) (human (endogenous in HeLa)) (UniProt Q9UEU0); assay: as above
T4 sequence: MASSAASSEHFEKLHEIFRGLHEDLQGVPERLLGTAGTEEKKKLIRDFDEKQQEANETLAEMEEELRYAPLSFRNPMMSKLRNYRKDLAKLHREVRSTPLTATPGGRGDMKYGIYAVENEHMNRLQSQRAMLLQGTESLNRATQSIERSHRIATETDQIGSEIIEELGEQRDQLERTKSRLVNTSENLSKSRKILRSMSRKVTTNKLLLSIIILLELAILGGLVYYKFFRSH

[5] = target: T5, STX7-HA (syntaxin 7), in HeLa (human) (UniProt O15400); assay: co-IP; HeLa (WT or IFITM3 KO) transfected with STX7-HA; STX7-HA immunoprecipitated with anti-HA; immunoblot for endogenous IFITM3, STX8, Vti1b; isotype matched antibody as control
T5 sequence: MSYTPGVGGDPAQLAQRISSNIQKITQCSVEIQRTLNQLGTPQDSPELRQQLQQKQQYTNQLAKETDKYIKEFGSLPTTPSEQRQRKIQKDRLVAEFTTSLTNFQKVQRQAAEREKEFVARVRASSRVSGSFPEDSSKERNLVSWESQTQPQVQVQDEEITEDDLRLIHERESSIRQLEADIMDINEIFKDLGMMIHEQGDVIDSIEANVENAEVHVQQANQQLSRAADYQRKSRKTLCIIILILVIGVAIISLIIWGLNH

[6] = target: T6, STX7-HA (syntaxin 7), in HEK293T (human) (UniProt O15400); assay: co-IP; HEK293T stably expressing Empty Vector, IFITM3 WT-FLAG or IFITM3 G95L-FLAG, co-transfected with STX7-HA and VAMP8-Myc or VAMP7-Myc; STX7-HA immunoprecipitated with anti-HA; immunoblot with anti-HA, anti-FLAG, anti-Myc
T6 sequence: T5 sequence

[7] = target: T6, STX7-HA (syntaxin 7), in HEK293T (human); assay: co-IP; HEK293T co-transfected with one FLAG-tagged CD225 protein and one HA- or Myc-tagged SNARE; lysis in 50 mM Tris-HCl pH 7.4, 1.0% TritonX-100, 150 mM NaCl, 1 mM EDTA; IP with anti-HA, anti-FLAG or anti-myc on Dynabeads, 3 hr at 4°C; immunoblot
[8] = target: T7, STX8-HA (syntaxin 8) (human) (UniProt Q9UNK0); assay: as above
T7 sequence: T2 sequence

STX4-HA (syntaxin 4) = STX4-HA (syntaxin 4) (UniProt Q12846); assay: as above
[9] = target: IFITM3-FLAG WT (interferon-induced transmembrane protein 3) (human) (UniProt Q01628); assay: as above
[10] = target: T8, STX7-HA (syntaxin 7), in HEK293T (human), O15400; assay: co-IP; HEK293T stably expressing Empty Vector, IFITM3 WT-FLAG or IFITM3 G95L-FLAG, co-transfected with STX7-HA and VAMP8-Myc or VAMP7-Myc; STX7-HA immunoprecipitated with anti-HA; immunoblot with anti-HA, anti-FLAG, anti-Myc; settings: remark: other sources report otherwise
T8 chain: T5 sequence

[11] = target: T9, endogenous STX8 (HeLa) (human (endogenous in HeLa)), Q9UNK0; assay: co-IP; HeLa (WT or IFITM3 KO); endogenous STX8, Vti1b, VAMP8 or VAMP7 immunoprecipitated with its antibody; immunoblot for endogenous IFITM3 or VAMP8; settings: remark: other sources report otherwise
T9 chain: T2 sequence

Molecule: IFITM3-FLAG G95L (from UniProt Q01628 1-133)
binding (VAMP7-myc (human)): binds | binding (VAMP8-HA (human)): binds

Molecule: IFITM3-FLAG WT (interferon-induced transmembrane protein 3) (from UniProt Q01628 1-133)
binding [6]: binds | binding [7]: binds | binding [8]: binds | binding (VAMP7-myc (human)): binds | binding (VAMP8-HA (human)): binds

B1: TUSC5-FLAG WT (trafficking regulator of GLUT4) (protein, UniProt Q8IXB3 1-177)
chain: MAHPVQSEFPSAQEPGSAAFLDLPEMEILLTKAENKDDKTLNLSKTLSGPLDLEQNSQGLPFKAISEGHLEAPLPRSPSRASSRRASSIATTSYAQDQEAPRDYLILAVVACFCPVWPLNLIPLIISIMSRSSMQQGNVDGARRLGRLARLLSITLIIMGIVIIMVAVTVNFTVQKK
binding (STX4-HA (syntaxin 4)): binds

B2: TUSC5-FLAG G141W (protein, UniProt Q8IXB3 1-177)
chain: B1 chain with G141W
binding (STX4-HA (syntaxin 4)): no binding

B3: STX7-HA (syntaxin 7), in HEK293T (protein, UniProt O15400 1-261)
chain: T5 sequence
binding [9]: binds

Results, then the molecule that gave them:

binding [1]: binds | binding [2]: binds | binding [3]: binds | binding [4]: binds | binding [5]: binds
Molecule: endogenous IFITM3 (HeLa) (from UniProt Q01628 1-133)

binding [5]: binds
B4: endogenous STX8 (HeLa) (protein, UniProt Q9UNK0 1-236)
chain: T2 sequence

binding [10]: binds
B5: VAMP8-Myc, Q9BV40 1-100 (protein)
chain: T1 sequence

binding [11]: binds
B6: endogenous VAMP8 (HeLa), Q9BV40 1-100 (protein)
chain: T1 sequence
